Assay: soluble fraction after stress (log2 fold change); higher = more stays soluble; pooled small domains, quantitative proteomics
Details: stress: 50 degC
Method in brief: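 Pooled custom libraries of small protein domains were measured in a high-throughput format, with quantitative proteomics as the read-out. Each library was stressed at 50°C. Aggregation propensity is given as the base-two logarithm of the fold change in how much of each protein stays soluble after the stress. Higher values mean a larger share of the protein remains in solution.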

HMEVITIENEDAFTEGRAFAHSEGILVGISSGAALKAATILAERPENKGKTIVALLPDSGDRYLSTALFA
soluble fraction (log2): 0.042

HMGGKYKPLILWHLIEGTKRFSALQRLLPQATPRMLTMNLRELESDGLVHRKVYPEVPPKTEYSLSDLGK
soluble fraction (log2): -0.319
